We go through 47 sequences from article PMC5892938.

The other results are listed elsewhere or left out. At the low end of the ranking the order means little.

The target in this experiment is GST-SBP-SLBP (stem-loop binding protein) (UniProt Q14493). The experiment can be described thus: targeted RNA Bind-n-Seq.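 Further: DESeq read counts versus GST-SBP nonspecific binding control pulldown.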 Particulars: RBNS binding buffer: 25 mM Tris pH 7.5, 150 mM KCl, 3 mM MgCl2, 0.1% Tween, 0.5 mg/mL BSA, 1 mM DTT; 27 nM protein, 750 pM RNA pool; temperature not stated; high values mean tight binding.
Take “GGUCACGUCUCAAUCAACUCAUUUUCAGGAGUUUCCUCCUGUUUACUCAACAGCUCGCAGUCAAG”: the binding signal (log2 fold change) stood at 0.0375.

Consider “GGUCACGUCUCAAUCAACUCUUUUUCCAGGGAAACCCCUGGUAAUCUCAACAGCUCGCAGUCAAG”, for which the binding signal (log2 fold change) is -0.0465. The same measure for “GGUCACGUCUCAAUCAACUCAAUUCCCAGGGAAAACCCUGGCUAAUUCAACAGCUCGCAGUCAAG”: -0.0744; for “GGUCACGUCUCAAUCAACUCAAUCCCAGGAGUUUACUCCUGUAAAUUCAACAGCUCGCAGUCAAG”: 0.0428.

Take “GGUCACGUCUCAAUCAACUCUAUUUCAGGAGUUUGCUCCUGCUUUUUCAACAGCUCGCAGUCAAG”: the binding signal (log2 fold change) was -0.112. The result for “GGUCACGUCUCAAUCAACUCUAUUCCAGGAGUUUACUCCUGCUAAUUCAACAGCUCGCAGUCAAG” reads -0.0891.

Take “GGUCACGUCUCAAUCAACUCUUCCUCCAGGGAAAGCCCUGGCAAUCUCAACAGCUCGCAGUCAAG”: the binding signal (log2 fold change) is -0.053.

Consider “GGUCACGUCUCAAUCAACUCAUCUUCCAGGGAAACCCCUGGCAUAUUCAACAGCUCGCAGUCAAG”, for which the binding signal (log2 fold change) is 0.161. The same measure for “GGUCACGUCUCAAUCAACUCUUCCCCCAGGGAAAGCCCUGGUAUUCUCAACAGCUCGCAGUCAAG”: 0.14; for “GGUCACGUCUCAAUCAACUCAUCAGAGGGGGGGAAAACCCCUUUGCCCUCCAUUUCAACAGCUCGCAGUCAAG”: -0.122; for “GGUCACGUCUCAAUCAACUCAACUUCAGGAGUUUUCUCCUGUUAUCUCAACAGCUCGCAGUCAAG”: 0.102.

With “GGUCACGUCUCAAUCAACUCAUCCCCAGGAGUUUGCUCCUGCUUUCUCAACAGCUCGCAGUCAAG”, the binding signal (log2 fold change) was determined as 0.26.

“GGUCACGUCUCAAUCAACUCAUCGCCCAGGGAAAUCCCUGGUAAAUUCAACAGCUCGCAGUCAAG”: the binding signal (log2 fold change) was -0.18. Take “GGUCACGUCUCAAUCAACUCAACUUCAGGAGUUUGCUCCUGCUAAUUCAACAGCUCGCAGUCAAG”: the binding signal (log2 fold change) worked out at 0.143. For the sequence “GGUCACGUCUCAAUCAACUCAAUCCCCAGGGAAAACCCUGGCUUUCUCAACAGCUCGCAGUCAAG”, the binding signal (log2 fold change) was found to be 0.159. The same measure for “GGUCACGUCUCAAUCAACUCAACUCCAGGAGUUUUCUCCUGUUAUCUCAACAGCUCGCAGUCAAG”: -0.0954. Regarding “GGUCACGUCUCAAUCAACUCUUUUUCAGGAGUUUUCUCCUGCAUACUCAACAGCUCGCAGUCAAG”, the binding signal (log2 fold change) is -0.117. Regarding “GGUCACGUCUCAAUCAACUCAUCUUCCAGGGAAAACCCUGGCAUACUCAACAGCUCGCAGUCAAG”, the binding signal (log2 fold change) stood at 0.114.

Turning to “GGUCACGUCUCAAUCAACUCAUUCUCAGGAGUUUGCUCCUGUUUAUUCAACAGCUCGCAGUCAAG”, the binding signal (log2 fold change) was -0.0291. In the case of “GGUCACGUCUCAAUCAACUCCUCAGAGGGGGGGAAAACCCCUUUACCCUCAAAUUCAACAGCUCGCAGUCAAG”, the binding signal (log2 fold change) is -0.172.

For the sequence “GGUCACGUCUCAAUCAACUCCUCAGAGGGGGGGAAAACCCCUUUGCCCUCAUAAUCAACAGCUCGCAGUCAAG”, the binding signal (log2 fold change) came to 0.29. The same measure for “GGUCACGUCUCAAUCAACUCAGUCCCCAGGGAAACCCCUGGUAUUUUCAACAGCUCGCAGUCAAG”: 0.335; for “GGUCACGUCUCAAUCAACUCUAGUCCCAGGGAAAGCCCUGGUAAUUUCAACAGCUCGCAGUCAAG”: -0.184. The result for “GGUCACGUCUCAAUCAACUCAUACGAGGGGGGGAAAACCCCUUUACCCUCCAUAUCAACAGCUCGCAGUCAAG” reads 0.156. The same measure for “GGUCACGUCUCAAUCAACUCAACUUCCAGGGAAACCCCUGGCUAUUUCAACAGCUCGCAGUCAAG”: 0.119. As to “GGUCACGUCUCAAUCAACUCAUUCGCAGGAGUUUCCUCCUGGUAUCUCAACAGCUCGCAGUCAAG”, the binding signal (log2 fold change) worked out at 0.0215.

Take “GGUCACGUCUCAAUCAACUCAUUUCCAGGAGUUUGCUCCUGUAAUUUCAACAGCUCGCAGUCAAG”: the binding signal (log2 fold change) amounted to 0.289. The result for “GGUCACGUCUCAAUCAACUCUAUCUCAGGAGUUUCCUCCUGCUUUUUCAACAGCUCGCAGUCAAG” reads 0.241. The same measure for “GGUCACGUCUCAAUCAACUCUUUUUCCAGGGAAAUCCCUGGCUUACUCAACAGCUCGCAGUCAAG”: -0.0473; for “GGUCACGUCUCAAUCAACUCUUUUCCAGGAGUUUUCUCCUGCAAUUUCAACAGCUCGCAGUCAAG”: -0.0511; for “GGUCACGUCUCAAUCAACUCAUCCCCAGGAGUUUACUCCUGUUUACUCAACAGCUCGCAGUCAAG”: 0.244. The result for “GGUCACGUCUCAAUCAACUCUAAAGAGGGGGGGAAAACCCCUUUGCCCUCGAUAUCAACAGCUCGCAGUCAAG” reads -0.0555; that for “GGUCACGUCUCAAUCAACUCAAUGUCAGGAGUUUCCUCCUGUUUUCUCAACAGCUCGCAGUCAAG”, 0.0273; that for “GGUCACGUCUCAAUCAACUCUACUUCCAGGGAAAUCCCUGGCAAUUUCAACAGCUCGCAGUCAAG”, -0.311. For the sequence “GGUCACGUCUCAAUCAACUCAUAAGAGGGGGGGAAAACCCCUUUACCCUCCAUUUCAACAGCUCGCAGUCAAG”, the binding signal (log2 fold change) is -0.122. The result for “GGUCACGUCUCAAUCAACUCAUCCCCAGGAGUUUGCUCCUGUAUACUCAACAGCUCGCAGUCAAG” reads -0.107.

On to “GGUCACGUCUCAAUCAACUCUUCUUCAGGAGUUUUCUCCUGUUAACUCAACAGCUCGCAGUCAAG”, for which the binding signal (log2 fold change) was 0.0848. The same measure for “GGUCACGUCUCAAUCAACUCUUUCUCCAGGGAAAGCCCUGGCUAAUUCAACAGCUCGCAGUCAAG”: 0.131. The same measure for “GGUCACGUCUCAAUCAACUCUUAAGAGGGGGGGAAAACCCCUUUACCCUCCUAUUCAACAGCUCGCAGUCAAG”: -0.332; for “GGUCACGUCUCAAUCAACUCUCUAGAGGGGGGGAAAACCCCUUUGCCCUCAUAUUCAACAGCUCGCAGUCAAG”: -0.324. The same measure for “GGUCACGUCUCAAUCAACUCUUCUUCCAGGGAAAGCCCUGGCAAUUUCAACAGCUCGCAGUCAAG”: 0.105; for “GGUCACGUCUCAAUCAACUCACUAGAGGGGGGGAAAACCCCUUUGCCCUCCAUUUCAACAGCUCGCAGUCAAG”: 0.0554; for “GGUCACGUCUCAAUCAACUCAAAAGAGGGGGGGAAAACCCCUUUGCCCUCCAAAUCAACAGCUCGCAGUCAAG”: 0.2. In the case of “GGUCACGUCUCAAUCAACUCUAUCCCCAGGGAAAGCCCUGGCAAUCUCAACAGCUCGCAGUCAAG”, the binding signal (log2 fold change) was -0.0939. Take “GGUCACGUCUCAAUCAACUCUUCUCCCAGGGAAACCCCUGGUAAUCUCAACAGCUCGCAGUCAAG”: the binding signal (log2 fold change) was 0.246.

Take “GGUCACGUCUCAAUCAACUCUUCCUCAGGAGUUUUCUCCUGCUAAUUCAACAGCUCGCAGUCAAG”: the binding signal (log2 fold change) came out at 0.0828. Consider “GGUCACGUCUCAAUCAACUCAUUCUCCAGGGAAAUCCCUGGCUUUCUCAACAGCUCGCAGUCAAG”, for which the binding signal (log2 fold change) was determined as 0.0849.
